Reference: PubChem BioAssay AID1468 (National Center for Advancing Translational Sciences (NCATS), 2008)
Values joined by “and” are separate entries in the source; they are usually repeats but may differ in a detail not shown here. Equal values may be shown once. Hit rate of the full screen: of about 280,000 compounds, about 1,100 (0.39%) were called active. The shares of active, inactive and inconclusive entries below differ from those in the screen. Calls follow the shape of the dose curve; as a rule, active = well fitted inhibition curve with a large enough effect; inconclusive = small, poorly fitted or top-dose-only effect, or effect the other way; inactive = flat fitted curve, though single readings scatter. Where the call is inconclusive, the potency comes from a doubtful curve fit.
% is scaled to controls: 0 for no effect and ±100 for the full control effect; potency is read from the fitted curve at half-maximal effect; tags tell the direction and shape of the fitted curve.
Also: nearly all actives have a fitted effect of over 55% in size.

The compounds below were run against Microtubule-associated protein tau (Homo sapiens) (UniProt P10636) (assay: qHTS for Inhibitors of Tau Fibril Formation, Fluorescence Polarization). Conditions: K18 P301L tau heparin fibrillization, Alexa594 FP, 6 h; series mostly up to 57.7 µM; activity, negative = inhibition: at the top concentration.
Sequence of UniProt P10636 (P10636 whole entry, looked up, the tested form may be a part): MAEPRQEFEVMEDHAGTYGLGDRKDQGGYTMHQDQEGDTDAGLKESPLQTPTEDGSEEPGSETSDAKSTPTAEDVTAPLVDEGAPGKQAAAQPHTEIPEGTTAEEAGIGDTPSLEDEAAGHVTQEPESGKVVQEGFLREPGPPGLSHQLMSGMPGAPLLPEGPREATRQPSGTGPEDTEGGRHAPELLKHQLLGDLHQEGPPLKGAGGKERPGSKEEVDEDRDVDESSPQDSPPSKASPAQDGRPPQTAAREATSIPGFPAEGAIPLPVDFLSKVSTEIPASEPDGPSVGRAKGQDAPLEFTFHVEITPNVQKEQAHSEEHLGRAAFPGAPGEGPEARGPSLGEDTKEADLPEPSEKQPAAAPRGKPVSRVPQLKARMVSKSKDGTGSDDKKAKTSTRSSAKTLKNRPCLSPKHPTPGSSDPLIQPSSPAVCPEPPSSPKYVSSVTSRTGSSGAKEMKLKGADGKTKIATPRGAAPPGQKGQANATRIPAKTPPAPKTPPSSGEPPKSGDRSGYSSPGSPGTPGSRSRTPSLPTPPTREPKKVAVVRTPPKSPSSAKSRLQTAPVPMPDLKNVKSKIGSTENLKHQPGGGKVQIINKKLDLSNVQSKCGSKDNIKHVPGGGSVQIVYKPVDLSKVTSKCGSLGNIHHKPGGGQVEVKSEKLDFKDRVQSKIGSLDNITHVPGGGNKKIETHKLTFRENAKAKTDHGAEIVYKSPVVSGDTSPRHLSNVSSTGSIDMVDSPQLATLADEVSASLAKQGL
Outline: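 Human K18 P301L fragment (15 uM unlabeled plus 0.24 uM Alexa 594-labeled) in 100 mM sodium acetate pH 7 with compound, aggregation induced by 20 uM heparin for 6 hr at 37 C. ThT (30 uM) added for 1 hr, then Alexa 594 FP read.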
O=S(=O)(c1ccc(Cl)cc1)c1nnn2c1nc(NC1CCCC1)c1sccc12 was tested, and the Potency was inconclusive: 10 µM [inhibitor, partial curve]. With O=C(Nc1cc(-c2ccccc2)[nH]n1)c1ccc(Cl)cc1 the Potency was inconclusive: 25.1 µM [inhibitor, partial curve, poor fit] and inconclusive: 28.2 µM [inhibitor, single point]. In the case of C/C=C/C(=O)OCC(=O)Nc1nc2ccc(C)cc2s1, the Potency is reported as inconclusive: 31.6 µM [inhibitor, partial curve]. For CC(=O)NC(Cc1ccc(C(C)C)cc1)C(=O)NC1CCN(c2nc(C)cc(C)n2)CC1 (stereo not drawn), the “activity, negative = inhibition” value was inactive: -3.07%. With CN(Cc1ccccc1)C(=O)c1oc(=O)c2ccccc2c1-c1ccccc1 the “activity, negative = inhibition” value was inactive: -5.21%. O=C(O)CN(CC(=O)O)Cc1cc2c(-c3ccccc3C(=O)O)c3cc(CN(CC(=O)O)CC(=O)O)c(=O)cc-3oc2cc1O was tested, and the Potency was active: 22.4 µM. S=C(Nc1ccccc1)Nc1ccccc1C#Cc1ccccc1 was tested, and the Potency was inconclusive: 14.1 µM [inhibitor, partial curve]. With CSc1nc2nccc(-c3ccc(-c4ccccc4)cc3)n2n1 the Potency was inconclusive: 12.6 µM [inhibitor, partial curve]. For N#C/C(=C\c1cccc(O)c1)c1nc2ccccc2o1, the Potency was inconclusive: 39.8 µM [inhibitor, single point]. Cc1cccc(NC(=O)N2CCC(CN3CCCCCC3)CC2)c1C was tested, and the Potency was inconclusive: 44.7 µM [inhibitor, single point]. CC(C)(C)NC(=S)NC(=O)C12CCC3CC(CC(C3)C1)C2 was tested, and the “activity, negative = inhibition” value was inactive: -2.08%. For CCN1CCN(CCC2Oc3cc([N+](=O)[O-])ccc3NC2=O)CC1 (stereo not drawn), the “activity, negative = inhibition” value was inactive: 6.58%. With COc1ccc(C)cc1N1C(=N)/C(=C2/Nc3ccccc3S2)C(c2ccccc2)C1=O (stereo not drawn) the Potency was inconclusive: 17.8 µM [inhibitor, single point]. With CCN(CC)S(=O)(=O)c1ccc(C)c(NC(=O)CNCCN(C(C)C)C(C)C)c1 the “activity, negative = inhibition” value was inactive: 3.01%. In the case of COc1cccc(OCC(O)CN2CC(C)CC(C)C2)c1 (stereo not drawn), the “activity, negative = inhibition” value is reported as inactive: -3.51%. For CCOC(=O)c1nc(NCc2ccccc2)c2ccccc2n1, the “activity, negative = inhibition” value was inactive: -7.32%. With COc1cc(/C=C/C(=O)NCCn2c(C)cc3ccccc32)cc(OC)c1OC the Potency was inconclusive: 39.8 µM [activator, single point]. With Cc1ccc(S/C=C\C(=O)c2ccccc2)cc1 the Potency was inconclusive: 17.8 µM [inhibitor, partial curve, poor fit]. For CCCCCCC(=O)OCC(=O)c1ccc2c(c1)NC(=O)CO2, the “activity, negative = inhibition” value was inactive: -7.73%. For COc1ccc(OCC(=O)N/N=C/C=C/c2ccccc2)cc1, the “activity, negative = inhibition” value was inactive: -11.2%. For COc1ccc(CN2CSC(=S)N(Cc3ccc(OC)cc3)C2)cc1, the Potency was inconclusive: 17.8 µM [inhibitor, partial curve]. COc1ccc(-c2cc3nc(C)c(CCC(=O)NC(C)c4ccccc4)c(C)n3n2)c(OC)c1 (stereo not drawn) was tested, and the Potency was inconclusive: 20 µM [activator, single point]. CCOC(=O)C(C)Sc1nc(-c2ccccc2)ccc1C#N (stereo not drawn) was tested, and the Potency was inconclusive: 12.6 µM [inhibitor, partial curve, poor fit]. With Cc1ccc(NC(=O)c2ccc3snnc3c2)cc1C the Potency was inconclusive: 20 µM [inhibitor, single point]. In the case of CCOC(=O)c1ccc(NC(=O)Cn2c3ncccc3c(=O)n2-c2ccc(C)c(C)c2)cc1, the Potency is reported as inconclusive: 7.94 µM [inhibitor, partial curve]. With COc1cccc(NC(=O)c2oc3ccc(S(=O)(=O)N4CCCCCC4)cc3c2C)c1 the Potency was inconclusive: 44.7 µM [inhibitor, single point]. In the case of O=Cc1ccc(Oc2ccc(F)cc2)nc1, the “activity, negative = inhibition” value is reported as inactive: 0.188%. For Cc1nc(S/C(=C\c2ccc(-c3ccc(C(=O)O)c(Cl)c3)o2)C(=O)O)n[nH]1, the “activity, negative = inhibition” value was inactive: -3.73%. In the case of CC(C)CSC1=NSC2=NC(=O)/C(=C\c3coc4ccccc4c3=O)C(=N)N12, the Potency is reported as inconclusive: 39.8 µM [inhibitor, single point]. In the case of CCOC(=O)c1sc(NC(=O)CSc2ccccn2)c(C#N)c1C, the “activity, negative = inhibition” value is reported as inactive: -0.286%. In the case of CC(=O)Nc1ccc(S(=O)(=O)N2CCN(c3cc(C(F)(F)F)ccn3)CC2)cc1, the Potency is reported as inconclusive: 11.2 µM [inhibitor, partial curve, poor fit]. With COc1ccc(C(=O)n2nc(-c3ccc(C)cc3)nc2N)cc1OC the Potency was inconclusive: 17.8 µM [inhibitor, partial curve]. With c1ccc(-c2cc3c(NCC4COc5ccccc5O4)ncnc3s2)cc1 (stereo not drawn) the Potency was inconclusive: 11.2 µM [inhibitor, partial curve, poor fit]. With COc1ccc(C(C)=O)cc1COC(=O)c1ccc2c(c1)OCO2 the Potency was inconclusive: 11.2 µM [inhibitor, partial curve]. In the case of CCCCc1ccc(N2C(=O)[C@@H]3C(CC(N)=O)NC4(C(=O)Nc5ccc(F)cc54)[C@@H]3C2=O)cc1 (stereo partly drawn), the Potency is reported as inconclusive: 3.98 µM [inhibitor, partial curve, poor fit]. CCCS(=O)(=O)c1c(S(=O)(=O)CCC)c2ccc(C(C)=O)cn2c1C(=O)OC was tested, and the “activity, negative = inhibition” value was inactive: 1.37%. In the case of COc1ccc(OC)c(C2C(C(=O)O)c3ccccc3C(=O)N2C)c1 (stereo not drawn), the Potency is reported as inconclusive: 39.8 µM [inhibitor, single point]. In the case of CCOC(=O)C1=C(CN2CCc3ccccc32)NC(=O)NC1c1ccc(Cl)cc1 (stereo not drawn), the Potency is reported as inconclusive: 12.6 µM [activator, partial curve]. With NS(=O)(=O)c1ccc(N/N=C/c2ccccc2Br)cc1 the Potency was inconclusive: 25.1 µM [activator, partial curve, poor fit]. With Cc1c(Cl)cccc1NC(=O)C1CCN(c2nc3ccccc3[nH]2)CC1 the “activity, negative = inhibition” value was inactive: 10.7%. In the case of COC(=O)c1sccc1NC(=O)c1cc(C)on1, the Potency is reported as inconclusive: 15.8 µM [inhibitor, partial curve]. In the case of COc1ccc(C(Nc2ccccn2)c2oc(CO)cc(=O)c2O)cc1 (stereo not drawn), the “activity, negative = inhibition” value is reported as inactive: 14.4%. With CSc1ccc(CCNC(=O)c2cc3cc4cc(C)ccc4nc3s2)cc1 the Potency was inconclusive: 39.8 µM [inhibitor, single point]. Fc1ccccc1CNCCC(Cc1ccccc1)c1ccc2c(c1)OCO2 (stereo not drawn) was tested, and the “activity, negative = inhibition” value was inactive: 3.52%. With Cc1c(Cl)cccc1NC(=O)Cn1c(=O)n(Cc2nc(-c3ccccc3)no2)c(=O)c2cc3c(cc21)OCO3 the Potency was inconclusive: 28.2 µM [inhibitor, partial curve]. For COc1ccc(-n2c(Cc3cccn3C)nnc2SCC(=O)Nc2ccc(C(C)=O)cc2)cc1, the Potency was inconclusive: 8.91 µM [inhibitor, single point]. Cc1ccc(C(=O)Nc2ccc3oc(-c4ccccc4C)nc3c2)cc1 was tested, and the Potency was inconclusive: 12.6 µM [inhibitor, partial curve]. For Cc1ccc(CCNC(=O)C23CN(Cc4ccccc4)CC2C(c2ccc([N+](=O)[O-])cc2)=NO3)cc1 (stereo not drawn), the Potency was inconclusive: 11.2 µM [activator, partial curve]. In the case of Cc1ccc2oc(=O)n(CCNC(=O)Nc3ccc(Cl)cc3)c2c1, the Potency is reported as inconclusive: 31.6 µM [inhibitor, single point]. For CCOC(=O)Cc1csc(NC(=O)NC2(C(F)(F)F)Oc3ccccc3O2)n1, the Potency was inconclusive: 5.01 µM [inhibitor, full curve]. For COc1cc(/C=C(\C#N)c2nc3ccccc3[nH]2)cc(Br)c1OCc1ccccc1, the Potency was inconclusive: 1.78 µM [inhibitor, full curve]. For Cc1cc(C)cc(NC(=O)CSc2nc3sc4c(c3c(=O)[nH]2)CCCC4)c1, the “activity, negative = inhibition” value was inactive: -1.06%. O=C(Nc1cccs1)Nc1ccccc1Br was tested, and the Potency was inconclusive: 1.58 µM [activator, full curve, poor fit]. c1csc(-c2csc3ncnc(NCCCN4CCOCC4)c23)c1 was tested, and the “activity, negative = inhibition” value was inactive: 4.26%. For O=C(NCCc1ccc(Cl)cc1)c1ccc(CSCc2cccc(Cl)c2)o1, the “activity, negative = inhibition” value was inactive: -5.32%. For CC(=O)C1=C(S(=O)(=O)c2ccc(C)cc2)CS(=O)(=O)C1, the Potency was active: 28.2 µM. In the case of CC(C)C[C@H](NC(=O)c1nc[nH]c1C(=O)N1CCN(C(=O)OC(C)(C)C)CC1)C(=O)OCc1ccccc1, the Potency is reported as inconclusive: 0.891 µM [activator, single point]. For CCc1cccc(C)c1NC(=O)CSc1nc2c(c(=O)[nH]1)CCC2, the “activity, negative = inhibition” value was inactive: 7.57%. CCCN1C(=O)/C(=C/c2cc(C)n(C)c2C)SC1=Nc1ccc(OCC)cc1 was tested, and the Potency was inconclusive: 44.7 µM [inhibitor, single point]. With CC(/C=C1\SC(=S)N(NC(=O)c2ccc(O)cc2)C1=O)=C\c1ccccc1 the “activity, negative = inhibition” value was inactive: 0.831%. For COc1ccc(C(=O)NN2C(=O)C3C(c4ccccc4)C=CC(c4ccccc4)C3C2=O)cc1 (stereo not drawn), the Potency was inconclusive: 39.8 µM [inhibitor, single point]. For Cn1cc(/C=N\NC(=O)c2cccs2)c2ccccc21, the “activity, negative = inhibition” value was inactive: 19.5%. For CS(=O)(=O)N(Cc1ccccc1)c1ccc(C(=O)Nc2ccc(Cl)cc2)cc1, the Potency was inconclusive: 2 µM [inhibitor, partial curve]. With COc1ccc(S(=O)(=O)N(CCc2ccccc2)CC(=O)O)cc1 the Potency was inconclusive: 4.47 µM [inhibitor, single point]. For CCOC(=O)c1cnc2c(C)cccc2c1Nc1ccc(OC(C)C)cc1, the Potency was inconclusive: 10 µM [inhibitor, partial curve]. For CCN1CCN(Cc2nc3c(c(=O)n(C)c(=O)n3C)n2CCCc2ccccc2)CC1, the Potency was inconclusive: 39.8 µM [inhibitor, single point]. In the case of O=c1oc(Nc2ccccc2F)nc2ccccc12, the Potency is reported as inconclusive: 28.2 µM [inhibitor, partial curve]. In the case of COc1ccc(Cl)cc1NC(=O)c1cc(S(=O)(=O)N(C)Cc2ccccc2)ccc1F, the Potency is reported as inconclusive: 14.1 µM [inhibitor, partial curve, poor fit].
